The values below come from PubChem BioAssay AID1918930 (Molecular Pharmacology Branch, DTP, NCI, 2023).

As usually defined, the IC50 is the concentration at which inhibition is half-maximal.

This assay deals with 233499-124-R-J3-PDC complex spheroid viability, % test/control. In words: Anticancer human tumor 233499-124-R-J3-PDC patient-derived colon adenocarcinoma cell line growth inhibition. To be noted: for IC50: compound alone; for viability, T/C: stronger effect = lower value. The text has this: Multicellular complex tumor spheroid response to LSD1 Inhibitor Iadademstat in combination with a variety of drugs and investigational agents in selected tumor cell lines
The current study was undertaken to assess response to LSD1 inhibitors in combination with standard-of-care drugs and investigational agents in solid tumor complex spheroid models as well as in the K-562 leukemia. Complex spheroids include a stromal component modeled by human endothelial cells (HUVEC) and fibroblasts modeled by human mesenchymal stem cells (MSCs). The concentration ranges selected for each drug and investigational agent were based upon clinically achievable concentrations if the clinical Cmax of the agent was known.
Compounds. The drugs and investigational agents used in this study are listed on Table 1. All of the agents used, including staurosporine (NSC755774) and gemcitabine (NSC613327), were obtained from the Developmental Therapeutics Program, NCI. FDA-approved anticancer drugs are available from the NCI at http://dtp.nci.nih.gov/branches/dscb/oncology_drugset_explanation.html. Drugs and investigational agents were >95% pure by proton nuclear magnetic resonance (NMR) and liquid chromatography/mass spectrometry (LC/MS). Stock solutions were prepared at 400x in DMSO, stored at -70 degrees C, and diluted in fresh medium prior to their use. The final concentration of DMSO in cell culture wells never exceeded 0.25% (v/v). The FDA-approved anticancer drug set is available from the Developmental Therapeutics Program at https://dtp.cancer.gov/organization/dscb/obtaining/available_plates.htm. All drugs and investigational agents were tested over a range starting from a high concentration at or near the clinical Cmax and decreasing in half-log increments. If the clinical Cmax for an agent had not been determined, the highest concentration tested was 10 microM.
Cell Lines. The patient-derived cancer cell (PDC) lines: 292921-168-R-J2-PDC, K24384-001-R-PDC, and 521955-158-R2-J5-PDC pancreatic carcinomas, 556581-035-R-J1 ovarian carcinoma, 324938-238-R-J1-PDC, 855422-203-R-J1-PDC and 883617-216-R-J1-PDC urothelial bladder carcinomas, 743489-274-T-PDC renal cell carcinoma, 138582-R-J1 Merkel cell tumor, K60290-347-R-J1 and K57222-313-R-J1-PDC glioblastomas, 653999-131-R-J2-PDC, LG0703-F948-PDC, and 349418-098-R-PDC non-small cell lung carcinomas, 885512-296-R-J2-PDC, 171881-019-R-J1-PDC breast carcinomas and 186277-243-T-J2-PDC and 233499-124-R-J2-PDC colon carcinomas were obtained from the NCI Patient-Derived Models Repository (PDMR, https://pdmr.cancer.gov). The established cell lines NCI/ADR-RES (RRID:CVCL_14520 and OVCAR-5 (RRID:CVCL_1628) ovarian carcinomas, 786-O (RRID:CVCL_1051) and A498 (RRID:CVCL_A498) renal cell carcinoma, NCI-H211 (ATCC, cat. CRL-5824; RRID:CVCL_1529), NCI-H196 (ATCC, cat. CRL-5823, RRID:CVCL_1509), SW 1271 (ATCC, cat. CRL-2177, RRID:CVCL_1716) and NCI-H1876 (ATCC, cat. CRL-5902, RRID:CVCL_1503) small cell lung carcinomas, MDA-MB-231 (RRID:CVCL_0062) and MDA-MB-468 (RRID:CVCL_0419)breast carcinomas (10-12). Pooled donor human umbilical vein endothelial cells (HUVEC, Lonza, cat. CC-2519) and human mesenchymal stem cells (hMSC, Lonza, cat. PT-2501) were purchased from Lonza (Walkersville, MD).
Cell Culture. All cells were maintained in an incubator at 37 degrees C and 5% CO2 with 95% humidity. The PDC lines were cultured according to standard operating procedures established by the NCI PDMR (https://pdmr.cancer.gov). Briefly all PDCs were thawed and cultured in Matrigel-coated flasks prepared with a working solution of 1X Ham's F-12 nutrient mix, without supplementation (Invitrogen, Waltham, MA, cat. 11765054), 100 U/mL penicillin-streptomycin (Invitrogen, cat. 15140122), and 2.5% Matrigel (Corning Inc., Corning, NY, cat. 354248) for the first three passages. […]

SMILES strings stand for the structures. Not every entry of the source has a single result; some have several. This is not the full list of results. There may be further records. Values given together repeat one measurement (runs, samples, wells, individuals or studies). Brackets with × count equal records among those shown. Marks such as [2022-09] give the month of the run.
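Note: spheroids exposed to agents for one week before readout.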

As to `Nc1ccn(C2OC(CO)C(O)C2(F)F)c(=O)n1` (stereo not drawn), the 50% inhibitory concentration (IC50) was 1.28 nM [2022-01] and 89.8 nM [2022-02].
With `CC(C)CC(NC(=O)C(Cc1ccccc1)NC(=O)c1cnccn1)B(O)O` (stereo not drawn), under “compound alone 0.001 µM”, the viability, T/C is 102% [2022-01] and 0.43% [2022-02].
In the case of `NC1CCC(NC2CC2c2ccccc2)CC1` (stereo not drawn), the viability, T/C is 110, 100 (2×), 103 (3×), 99.4, 92.3, 98.8, 86.9, 112, 96.6, 92.9, 93.9, 104, 121, 101, 97.8, 95.9, 105, 87.8% (compound alone 0.1 µM); 95.5, 107, 99.6, 110 (2×), 97.8, 103, 84.5% (compound alone 0.316 µM); 79.4, 93.5, 88.7, 93.7, 108, 103 (2×), 99.1, 86.9, 89.2, 79.8, 96.4, 98.1, 92.7, 87.5, 77.8, 92.2, 90.5, 86.6, 88, 97.1, 95.2, 80.3, 95.4% (compound alone 1 µM); 84.3, 81.7, 102, 88.3, 91, 86.3, 92.7, 90.6, 86.1 (2×), 87.2, 107, 85.3, 80.4, 87.7, 97.2, 79.5, 82.1, 90.9, 89.1, 91.8, 100, 88.7, 88.6% (compound alone 3.16 µM); 77.4, 67.2, 78.4 (2×), 77.1, 90.6, 95.7, 89.3, 77.7, 89.4, 87.4, 81.7, 81.4, 76.7, 78.7, 86.5 (2×), 85.4, 78.8, 81.9, 80.5, 91.4, 65.1% (compound alone 10 µM).
`CC1(C)CCC(CN2CCN(c3ccc(C(=O)NS(=O)(=O)c4ccc(NCC5CCOCC5)c([N+](=O)[O-])c4)c(Oc4cnc5[nH]ccc5c4)c3)CC2)=C(c2ccc(Cl)cc2)C1`: the viability, T/C (compound alone 10 µM) is 53.9% [2022-01] and 1.23% [2022-02].
`NC1CC1c1ccc(-c2cccc(O)c2)cc1` (stereo not drawn): the viability, T/C was 102, 104 (2×), 92.6, 99.5, 110, 103 (3×), 82.3, 106, 93.8, 95.3, 107, 98, 97, 101, 91.3, 112, 91.5, 92.4, 96, 81.8, 90.7% (compound alone 0.316 µM); 91.3 (2×), 97.7, 97.4, 99.5, 95.1, 106, 95.8, 89.2, 94, 89.8, 103, 105, 96.7, 102, 86.4, 97, 104, 80.1, 93.6, 83.3, 82.5, 85.4, 90.3, 99.4% (compound alone 1 µM); 82.9, 87.5, 85.3, 88.5, 94.3, 93, 81.4, 85.5, 92.1, 101, 84.1, 87.3, 87.6, 77.4, 108, 85.4, 89.7 (2×), 94.5, 83.7, 93.7, 69.4, 95.8, 86.8% (compound alone 3.16 µM); 79, 87.6, 82.8, 85.7, 79.8, 80.1, 81.3, 88.1 (2×), 85.3, 85.1, 78.4, 83.4, 78.2, 80.4, 83.3, 93.4, 94.1, 76, 72.4, 81.1, 60.6, 73.2, 87.4, 70.3% (compound alone 10 µM).
On to `CC1COCCN1c1cc(-c2ccnn2C)c2ccnc(-c3ccn[nH]3)c2n1` (stereo not drawn), for which the concentration for half-maximal inhibition (IC50) was 50.7 nM [2022-01] and < 3.16 nM [2022-02].
